# Whole data set: some 81,000 sequences, median “one-hybrid fitness for binding parS DNA” near -0.17, cut for the highest 2% near 0.51. This is one part of the list.
# B1: Caulobacter ParB omega fusion; a variant is named by its letters at X, in order, B8GW30 (parent)
# chain: MESVVVGEPGMSEGRRGLGRGLSALLGEVDAAPAQAPGEQLGGSREAPIEILQRNPDQPRRTFREEDLEDLSNSIREKGVLQPILVRPSPDTAGEYQIVAGERAWRAAQRAGLKTVPIMVRELDDLAVLEIGIIENVQRADLNVLEEALSYKVLMEKFERTQENIAQTIGKSXSHVANXMRLLXLPDEVQSYLVSGELTAXHARAIAAAADPVALAKQIIEGGLSVRETEALARKAPNLSAGKSKGGRPPRVKDTDTQALESDLSSVLGLDVSIDHRGSTGTLTITYATLEQLDDLCNRLTRGI
# Variants of: B1
# Experiment: one-hybrid fitness for binding parS DNA (scaled: cognate 1, non-cognate 0); higher = stronger binding
# Conditions: with parS DNA site
# Method in brief: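 Values were rescaled so that cognate is 1 and non-cognate is 0. Each is a fitness, the log change in a variant's read ratio to wild type from Illumina reads of plasmids before and after selection, with three replicate libraries pooled and variants under 10 reads dropped. Selection of the Caulobacter ParB libraries, four specificity codons randomised, used E. coli USO with a HIS3 reporter, site 19 bp from the promoter, on M9-minus-histidine with 0.1 mM IPTG and 5 mM 3-AT for 48 hours at 37°C.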
row,Variant,one-hybrid fitness for binding parS DNA
1,ASSE,≤ 0.2
2,AGCS,≤ 0.2
3,ADCS,≤ 0.2
4,QVDI,≤ 0.2
5,ISDT,≤ 0.2
6,MVLC,≤ 0.2
7,DLIE,≤ 0.2
8,WHVT,≤ 0.2
9,AAAD,≤ 0.2
10,LEPP,≤ 0.2
11,YAKG,≤ 0.2
12,HKFG,≤ 0.2
13,DTIT,≤ 0.2
14,TVNL,≤ 0.2
15,TVPF,≤ 0.2
16,WELE,≤ 0.2
17,KCMY,≤ 0.2
18,DSYL,≤ 0.2
19,VLRH,≤ 0.2
20,AAPI,≤ 0.2
21,AEWT,≤ 0.2
22,KEHS,≤ 0.2
23,RDEI,≤ 0.2
24,ASQI,≤ 0.2
25,GFRT,≤ 0.2
26,DWVR,≤ 0.2

row,Variant,one-hybrid fitness for binding parS DNA
1,INMD,≤ 0.2
2,DRHR,≤ 0.2
3,HFLC,≤ 0.2
4,TDVM,≤ 0.2
5,PYHI,≤ 0.2
6,IQFV,≤ 0.2
7,YWDR,≤ 0.2
8,PRNP,≤ 0.2
9,EVYG,≤ 0.2
10,KTIG,≤ 0.2
11,CGQH,≤ 0.2
12,GLRN,≤ 0.2
13,QHKV,≤ 0.2
14,SGDI,≤ 0.2
15,LCNE,≤ 0.2
16,DNRK,≤ 0.2
17,PPYC,≤ 0.2
18,YRKS,0.353
19,PFDG,≤ 0.2
20,VVTW,≤ 0.2
21,CFRY,≤ 0.2
22,RQTF,0.211
23,MRLW,≤ 0.2
24,IRVT,≤ 0.2
25,SYLL,≤ 0.2
26,VAPW,≤ 0.2

row,Variant,one-hybrid fitness for binding parS DNA
1,PLME,≤ 0.2
2,QCCL,≤ 0.2
3,LCYK,≤ 0.2
4,FDAF,≤ 0.2
5,RPGC,≤ 0.2
6,SAVK,≤ 0.2
7,TLQD,≤ 0.2
8,RWFT,0.497
9,SGES,≤ 0.2
10,HPTS,≤ 0.2
11,RYCV,≤ 0.2
12,ANII,≤ 0.2
13,IEIF,≤ 0.2
14,TKPF,≤ 0.2
15,QRYK,≤ 0.2
16,YTMR,≤ 0.2
17,NKQN,≤ 0.2
18,QRKN,≤ 0.2
19,CPPQ,≤ 0.2
20,FKAS,≤ 0.2
21,ASMD,≤ 0.2
22,IRWG,≤ 0.2
23,RHVH,≤ 0.2
24,RVQR,≤ 0.2
25,QYYV,≤ 0.2
26,GAES,≤ 0.2

row,Variant,one-hybrid fitness for binding parS DNA
1,PFTM,≤ 0.2
2,ALPW,≤ 0.2
3,VTKS,≤ 0.2
4,HDDI,≤ 0.2
5,AAPV,≤ 0.2
6,AYPC,≤ 0.2
7,IFGR,≤ 0.2
8,RDPA,≤ 0.2
9,FSKK,≤ 0.2
10,CSLP,≤ 0.2
11,ARQA,≤ 0.2
12,TWHI,≤ 0.2
13,PRQE,≤ 0.2
14,CSQV,≤ 0.2
15,HMPS,≤ 0.2
16,EQPK,≤ 0.2
17,MVVC,≤ 0.2
18,VAHI,≤ 0.2
19,VALS,≤ 0.2
20,YLNE,≤ 0.2
21,MLWC,≤ 0.2
22,SVCF,≤ 0.2
23,LRDN,≤ 0.2
24,PSTD,≤ 0.2
25,RHWT,0.692
26,ASFS,≤ 0.2

row,Variant,one-hybrid fitness for binding parS DNA
1,TYHC,≤ 0.2
2,KGRS,≤ 0.2
3,RLMV,≤ 0.2
4,HTWM,≤ 0.2
5,FVGT,≤ 0.2
6,QFCT,≤ 0.2
7,GNSR,≤ 0.2
8,GYKM,≤ 0.2
9,KSAS,≤ 0.2
10,RYWR,≤ 0.2
11,TDQW,≤ 0.2
12,PSIN,≤ 0.2
13,REKM,≤ 0.2
14,LNAR,≤ 0.2
15,SGRS,≤ 0.2
16,PMIR,≤ 0.2
17,IGGG,≤ 0.2
18,TGKH,≤ 0.2
19,QFDY,≤ 0.2
20,VVAS,≤ 0.2
21,ASAG,≤ 0.2
22,ARFI,≤ 0.2
23,MCIG,≤ 0.2
24,YDTR,≤ 0.2
25,VFTM,≤ 0.2
26,NDLF,≤ 0.2

row,Variant,one-hybrid fitness for binding parS DNA
1,WVNV,≤ 0.2
2,CYYS,≤ 0.2
3,ASYW,≤ 0.2
4,LAIM,≤ 0.2
5,AYMS,≤ 0.2
6,QDPI,≤ 0.2
7,RSNT,0.911
8,QQVF,≤ 0.2
9,SSWA,≤ 0.2
10,AMKS,≤ 0.2
11,YPCR,≤ 0.2
12,GNHC,≤ 0.2
13,QIKT,≤ 0.2
14,SRLP,≤ 0.2
15,DLVE,≤ 0.2
16,CTAS,≤ 0.2
17,DRRY,≤ 0.2
18,QGMA,≤ 0.2
19,MSMG,≤ 0.2
20,QLDC,≤ 0.2
21,GPNL,≤ 0.2
22,REPG,≤ 0.2
23,TCSA,≤ 0.2
